# Measurements: PubChem BioAssay AID624417 (National Center for Advancing Translational Sciences (NCATS), 2012)
# Screen size: about 410,000 compounds; about 6,400 (1.6%) were called active. Inconclusive results, whose numbers are uncertain, are shown with a selection of clear calls. Calls come from the whole dose curve; as a rule, active = well fitted inhibition curve with a large enough effect; inconclusive = small, poorly fitted or top-dose-only effect; inactive = no such curve, though single readings can be large or run the other way. Potencies of inconclusive entries are left out as doubtful fits.
# Biological target: Glucagon-like peptide 1 receptor (Homo sapiens) (UniProt P43220)
# Chain of UniProt P43220 (P43220 whole entry, looked up): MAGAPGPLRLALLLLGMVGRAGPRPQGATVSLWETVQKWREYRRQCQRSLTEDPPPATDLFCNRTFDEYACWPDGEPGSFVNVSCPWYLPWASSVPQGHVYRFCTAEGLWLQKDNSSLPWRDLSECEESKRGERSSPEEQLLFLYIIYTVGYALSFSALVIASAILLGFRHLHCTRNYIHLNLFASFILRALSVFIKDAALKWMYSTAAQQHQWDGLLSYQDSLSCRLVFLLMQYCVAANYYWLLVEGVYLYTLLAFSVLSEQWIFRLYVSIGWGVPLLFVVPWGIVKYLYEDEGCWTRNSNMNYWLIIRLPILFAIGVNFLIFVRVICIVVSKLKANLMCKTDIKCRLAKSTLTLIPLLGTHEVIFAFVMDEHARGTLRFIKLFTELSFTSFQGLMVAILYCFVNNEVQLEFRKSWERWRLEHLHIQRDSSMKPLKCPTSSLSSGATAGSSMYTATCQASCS
# Experiment: qHTS of GLP-1 Receptor Inverse Agonists (Inhibition Mode); note: nearly all actives have a fitted effect of over 55% in size
# Details: HEK293 GLP-1R CRE-luciferase, luminescence, 24 h, GLP-1R form is constitutively active; activity change, negative = inhibition: at 38.3 µM (top of the series) unless noted
# In short: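 Readout was luciferase luminescence, measured 12 min after detection reagent at room temperature. Beforehand, GLP-1R reporter HEK293 cells had sat 12 h, then received compounds for 24 hr at 37 deg C.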
# % is set by controls: 0 for no effect and ±100 for the full control effect; potency is the fitted concentration of half-maximal effect; tags give direction and shape of the fitted curve.
Structure (SMILES),Potency,"activity change, negative = inhibition"
CC(C)(C)c1ccc(C(=O)Nc2ccc(C(=O)OCc3cc(=O)n4ccsc4n3)cc2)cc1,"inconclusive [inhibitor, full curve]",
CN(CC(=O)Nc1cccc2ccccc12)c1ccc(S(=O)(=O)N2CCOCC2)cn1,"inconclusive [inhibitor, full curve, poor fit]",
Cc1cccc(N2CCN(S(=O)(=O)c3ccc4c(c3)C(C)(C)C(=O)N4C)CC2)c1C,"inconclusive [inhibitor, single point]",
O=C(Cc1ccccc1)Nc1cccc(-c2nc3ncccc3o2)c1,,inactive: -7.69%
Cc1cnc(C(=O)OCC(=O)NCc2ccc(Cl)cc2)cn1,,inactive: 10.3%
COC(=O)c1ccc(/C=C(\C#N)c2nc3ccccc3s2)cc1,,inactive: 7.32%
CN(C)CCCNc1cc(-c2ccccc2)nc2cc(-c3cccc(F)c3)nn12,active: 3.55 µM,
CCC(=O)c1ccc(OCC(=O)NC2CCN(Cc3ccccc3)CC2)cc1,"inconclusive [inhibitor, single point]",
Cc1cc(C)cc(SCc2noc(C(=O)NCCC(C)C)c2C(=O)NCCC(C)C)c1,"inconclusive [inhibitor, full curve, poor fit]",
COc1ccccc1C(=O)Nc1c(C(=O)N2CCN(c3ccccc3F)CC2)oc2ccccc12,"inconclusive [inhibitor, partial curve]",
Cc1ccc(NC(=O)c2ccc(COc3ccccc3Cl)o2)cc1,"inconclusive [inhibitor, single point]",
COc1ccc(NC(=O)CCCSc2nc(-c3ccco3)cc(C(F)(F)F)n2)cc1,"inconclusive [inhibitor, single point]",
O=S(=O)(c1ccccc1)N1CCN(C(=S)NCc2ccccc2)CC1,"inconclusive [inhibitor, partial curve]",
CSc1ccc(CN(C)CC(=O)NCc2ccc(F)cc2)cc1,"inconclusive [inhibitor, single point]",
Cc1nc2oc3c(NCC4CCCO4)ncnc3c2c2c1COC(C)(C)C2 (stereo not given),,inactive: 0.6%
OC(c1cccc(Cl)c1)c1ncc(-c2ccc(Oc3ccccc3)cc2)[nH]1 (stereo not given),"inconclusive [inhibitor, partial curve, poor fit]",
COc1ccc(N(CC(=O)Nc2nccs2)S(=O)(=O)c2c(C)[nH]c(=O)[nH]c2=O)cc1,,inactive: 3.22%
CCn1c(SCC(=O)Nc2ccccc2)nc2c([nH]c3ccccc32)c1=O,,inactive: 12.1%
CC(=C\c1ccccc1)/C=C1/SC(=O)N(CCCC(=O)Nc2ccc(C(=O)O)cc2)C1=O,,inactive: -11.5%
CCCNC(=O)C1(C)CCN1C(=O)Cc1ccc(-c2ccccc2)cc1 (stereo not given),,inactive: -12.2%
Cc1ccc(CN2CCN(/N=C/c3cc(Br)cc(Br)c3O)CC2)cc1,"inconclusive [inhibitor, partial curve, poor fit]",
Cc1ccc(C2N(c3ccc(Cl)cc3)C(=O)N3CCCN23)cc1 (stereo not given),active: 10 µM,

Structure (SMILES),Potency,"activity change, negative = inhibition"
Cc1cc(C)c(Cc2c(C)nc3c(C(=O)NCc4ccco4)cnn3c2C)c(C)c1,"inconclusive [inhibitor, partial curve, poor fit]",
COc1cc2c(cc1NC(=O)COc1ccc(Br)cc1C)oc1ccccc12,,inactive: -1.16%
C[C@@H](c1ccccc1)N1C[C@H](COCc2ccccc2)Oc2cc(N3CC[C@H](N(C)C)C3)ccc2S1(=O)=O,"inconclusive [inhibitor, partial curve, poor fit]",
Cc1ccc(C)c(N2CCN(C(=O)C3CCN(C(=O)c4cc5sccc5n4C)CC3)CC2)c1,"inconclusive [inhibitor, single point]",
CC1CCCC(C)N1C(=O)COC(=O)c1ccccc1C(=O)c1ccccc1 (stereo not given),"inconclusive [inhibitor, single point]",
Cc1cccc(-c2cnc(C(O)c3ccc(-c4ccccc4)cc3)[nH]2)c1 (stereo not given),"inconclusive [inhibitor, single point]",
O=c1c([N+](=O)[O-])c(NCCN2CCCCCC2)c2ccccc2n1-c1ccccc1,"inconclusive [inhibitor, single point]",
CCOc1ccc(Nc2c3ccccc3nc3ccccc23)cc1,"inconclusive [inhibitor, single point]",
COc1cc(NS(=O)(=O)c2ccc(NC(=S)NC(=O)C(C)(C)C)cc2)nc(OC)n1,,inactive: 9.69%
CCn1c(COc2cccc(C)c2)nc2ccccc21,"inconclusive [inhibitor, partial curve, poor fit]",
O=S(=O)(c1ccc(Br)cc1)c1nc(-c2cccs2)oc1SCc1ccc(F)cc1,"inconclusive [inhibitor, partial curve, poor fit]",
Cc1ccc(NC(=S)NCc2ccccn2)cc1,"inconclusive [inhibitor, single point]",
Cc1cccc(NC(=O)N2C3CCCC2CC(NC(=O)C2CC2)C3)c1 (stereo not given),,inactive: 1.97%
Cc1ccc(Cc2c(-c3ccccc3)nc3c(C)cc(Br)cn23)cc1,"inconclusive [inhibitor, single point]",
Clc1ccccc1C(c1nnnn1Cc1ccco1)N1CCN(Cc2ccco2)CC1 (stereo not given),"inconclusive [inhibitor, single point]",
Cc1[nH]c2ccc(C(=O)Nc3ccc(F)cc3)cc2c1C,"inconclusive [inhibitor, single point]",
C[C@H](NC(=O)c1nc[nH]c1C(=O)N[C@@H](Cc1ccccc1)C(=O)OCc1ccccc1)C(=O)OCc1ccccc1,"inconclusive [inhibitor, single point]",
CCCCn1c(N)c(N(CC)C(=O)c2ccccc2C)c(=O)[nH]c1=O,,inactive: 7.7%
CCN(CCCNC(=O)C1CCN(C(=O)c2cc3sccc3n2C)CC1)Cc1ccccc1,"inconclusive [inhibitor, single point]",
O=C(Nc1cc(-c2nc3ncccc3o2)ccc1Cl)c1cccs1,"inconclusive [inhibitor, single point]",
Cc1cc2ccccc2nc1SCC(=O)N1CCCC1,"inconclusive [inhibitor, single point]",
COc1ccc(CCNC(=O)Cn2nnc(C(=O)Nc3ccc(Br)cc3)c2N)cc1OC,"inconclusive [inhibitor, single point]",

Structure (SMILES),Potency,"activity change, negative = inhibition"
O=[N+]([O-])c1cccc2c(S(=O)(=O)N3CCCCC3)cccc12,"inconclusive [inhibitor, full curve, poor fit]",
COc1ccc(CNC(=O)c2nnn(-c3cccc(C(F)(F)F)c3)c2N)cc1,"inconclusive [inhibitor, single point]",
Cc1oc(-c2ccccc2F)nc1CS(=O)(=O)CC(=O)N1CCN(c2ccc(Cl)cc2)CC1,"inconclusive [inhibitor, single point]",
Cc1ccc(CN2CCN(CCCc3ccccc3)CC2CCO)cc1 (stereo not given),"inconclusive [inhibitor, single point]",
CCOC(=O)N1CCC(NC(=O)c2cc(COc3ccccc3SC)on2)CC1,"inconclusive [inhibitor, single point]",
COc1ccc(CCn2c(=O)c3ccccc3n(CC(=O)Nc3cccc(C)c3)c2=O)cc1OC,,inactive: -2.52%
CCc1cccc(NC(=O)c2c(N3CCCC3=O)c3cc(C)ccc3n2C)c1,"inconclusive [inhibitor, single point]",
CCN(Cc1cnn(C)c1)Cc1nc(C(c2ccccc2)c2ccccc2)no1,"inconclusive [inhibitor, partial curve, poor fit]",
Cc1ccc(N2C(=O)Nc3ccccc3S2(=O)=O)cc1Cl,,inconclusive: -63.4% [inhibitor]
Cc1cc(C)c2sc(N(CCCN(C)C)C(=O)CN3C(=O)c4ccccc4C3=O)nc2c1,"inconclusive [inhibitor, partial curve, poor fit]",
CSc1ccc(CN2CCC2(C)C(=O)NCc2ccc3c(c2)OCO3)cc1 (stereo not given),"inconclusive [inhibitor, single point]",
O=C(c1ccc2c(c1)N(Cc1ccc(F)cc1)C(=O)c1ccccc1S2(=O)=O)N1CCCCCC1,"inconclusive [inhibitor, single point]",
NS(=O)(=O)c1ccc(NC(CNS(=O)(=O)c2ccccc2)c2ccccc2)cc1 (stereo not given),"inconclusive [inhibitor, partial curve, poor fit]",
Cc1cc(C(=O)N2CCC(Cc3ccccc3)CC2)no1,"inconclusive [inhibitor, single point]",
O=c1c(N2CCCCC2)coc2ccccc12,,inactive: -0.119%
CC(C)c1ccc(N(CC(=O)N2CCN(Cc3ccccc3)CC2)S(C)(=O)=O)cc1,"inconclusive [inhibitor, partial curve, poor fit]",
COc1ccc(CCNC(=O)CC(=O)N/N=C/c2ccc(C(=O)O)cc2)cc1OC,,inactive: 5.29%
Cc1ccc(S(=O)(=O)NCc2ccccc2)cc1C(=O)N1CCN(c2ccccc2)CC1,"inconclusive [inhibitor, partial curve, poor fit]",
COc1ccc(CNC(=O)CN(C)S(=O)(=O)c2ccc(Br)s2)cc1,"inconclusive [inhibitor, single point]",
CCOc1ccc(NC(=O)c2sc3nc(N4CCOCC4)c4c(c3c2N)CCCC4)cc1,,inactive: 1.56%
COc1ccc(Cl)cc1N(C(=O)Nc1cccc(Cl)c1)C1=NCC(C)S1 (stereo not given),"inconclusive [inhibitor, single point]",
